For 1 substance, stoichiometry N results are on record in PMC2909587.

In this experiment the target is CENP-Q (human) (UniProt Q7L2Z9). Briefly: SEC + other: glycerol gradient centrifugation.

Take “CENP-Q (a stretch of the chain, sequence left out) (natural protein; other documents disagree on this pair)”: the stoichiometry N stood at 8.

Broadly, the stoichiometry N is a count of units in the complex or per binding partner.
